# Assay results from PubChem BioAssay AID463254 (National Center for Advancing Translational Sciences (NCATS), 2010).
# The whole screen tested about 330,000 compounds, of which about 40 (0.01%) were called active. Inconclusive means that the source gave no clear call. Such entries were picked first, then a sample of the others. Calls follow the shape of the dose curve; as a rule, active = well fitted inhibition curve with a large enough effect; inconclusive = small, poorly fitted or top-dose-only effect, or effect the other way; inactive = flat fitted curve, though single readings scatter. A potency beside an inconclusive call is a rough fit, not a confirmed value.
# Target: Ubiquitin carboxyl-terminal hydrolase 2 (Homo sapiens) (UniProt O75604)
# Chain of UniProt O75604 (O75604 whole entry, looked up): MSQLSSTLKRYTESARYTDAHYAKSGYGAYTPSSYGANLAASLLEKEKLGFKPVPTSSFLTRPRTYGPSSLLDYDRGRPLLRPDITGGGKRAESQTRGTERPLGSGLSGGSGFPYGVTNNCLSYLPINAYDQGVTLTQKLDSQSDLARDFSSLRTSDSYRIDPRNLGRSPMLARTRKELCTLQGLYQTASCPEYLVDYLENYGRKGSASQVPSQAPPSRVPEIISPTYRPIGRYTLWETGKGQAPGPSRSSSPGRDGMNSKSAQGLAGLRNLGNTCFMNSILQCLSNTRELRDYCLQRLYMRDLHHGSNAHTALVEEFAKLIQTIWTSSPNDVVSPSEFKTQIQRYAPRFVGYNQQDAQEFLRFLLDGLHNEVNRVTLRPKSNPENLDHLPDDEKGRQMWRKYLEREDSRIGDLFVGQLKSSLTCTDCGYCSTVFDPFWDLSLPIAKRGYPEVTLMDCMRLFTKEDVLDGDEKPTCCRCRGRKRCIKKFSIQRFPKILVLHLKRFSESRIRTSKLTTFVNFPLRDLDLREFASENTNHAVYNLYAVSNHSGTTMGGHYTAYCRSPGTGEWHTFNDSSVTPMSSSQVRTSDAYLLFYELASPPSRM
# Experiment: qHTS Assay for Inhibitors of Ubiquitin-specific Protease USP2a Using CHOP2 as the Reporter;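 as to activity change, negative = inhibition: plate controls were DMSO wells for no effect and full inhibition by NEM control for full effect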
# Conditions: USP2 core, Ub-CHOP2 coupled fluorogenic reporter, 485/531; activity change, negative = inhibition: at 38.3 µM (top of the series)
# Method in brief: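 Cell-free coupled assay: 10nM USP2 core preincubated 30min RT with compound in Tris-HCl pH 8.0/CaCl2/CHAPS buffer, then 25nM Ub-CHOP2 and 25nM reporter substrate; fluorescence (Ex 485/Em 531) read after 60min RT, normalized to NEM inhibition, concentration-response curves fitted.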
# Potency is read from the fitted curve at half-maximal effect; tags tell the direction and shape of the fitted curve or compound fluorescence and quenching.
Compound,"activity change, negative = inhibition",Potency
CCOC(=O)c1ccc(NC(=S)Nc2cccc(C)n2)cc1,inactive: 3.21%,
COc1ccc(OC)c(/C=C/C(=O)N2CCCc3ccccc32)c1,inactive: 1.07%,
C/C(=N\NC(=O)c1ccc(NS(=O)(=O)c2cccs2)cc1)c1ccc(O)cc1O,inactive: 2.89%,
CCOC(=O)c1nc(NCc2cccnc2)c2ccccc2n1,inactive: 0.596%,
CC(C)(C)c1cc(Br)ccc1OCC(=O)Nc1ncn[nH]1,,"inconclusive: 5.01 µM [falling, single point]"
CCCOC(=O)CCCCC1SCC(NC(=O)OC)C1NC(=O)OC (stereo unspecified),,"inconclusive: 3.16 µM [falling, single point]"
Cc1ccc(N(CC(=O)N2CCCC2)S(C)(=O)=O)cc1C,inactive: -0.911%,
O=C(CCCN1C(=O)c2ccccc2C1=O)NC1=NCCS1,,"inconclusive: 5.01 µM [falling, single point]"
C#CCOCCOCCOCCNc1nc(N2CCN(C(=O)CCCCCCCCCCNC(=O)[C@H]([C@@H](C)CC)n3cc(CCCCCN)nn3)CC2)nc(N2CCN(C(=O)CCCCCCCCCCNC(=O)[C@@H]([C@H](C)CC)n3cc(CCCCCN)nn3)CC2)n1,,active: 5.01 µM
CCCCCCCCCCOC(=O)Cn1c(COc2ccccc2OC)[n+](C)c2ccccc21,,"inconclusive: 28.2 µM [falling, single point]"
N=c1sccn1CC(=O)Nc1ccc(S(=O)(=O)N2CCOCC2)cc1,,"inconclusive: 28.2 µM [falling, single point]"
O=C1C(Cl)=C(N2CCCCC2)C(=O)N1c1ccccc1,inactive: -3.64%,
CCOC(=O)C1CCN(C(=O)c2ccc(C)o2)CC1,inactive: -3.59%,
Cc1ccc(S(=O)(=O)N2[C@@H](c3ccc(C(C)(C)C)cc3)C(C(=O)O)=CC[C@H]2c2ccc(Cl)c(Cl)c2)cc1,,"inconclusive: 22.4 µM [falling, single point]"
Cc1ccc(NC(=O)CN(C)C(=O)c2cc(-c3ccco3)nc3ccccc23)cc1,,"inconclusive: 28.2 µM [falling, single point]"
COc1ccc(OC)c(C(c2nnnn2C2CCCC2)N2CCN(c3ccccc3F)CC2)c1 (stereo unspecified),inactive: -0.985%,
Nc1c(C(=O)NC2CC2)sc2nc3c(c(-c4ccco4)c12)CC/C3=C/c1ccco1,,active: 22.4 µM
CN(CCC#N)c1ccc(/C=C(\C#N)c2ccccn2)cc1,inactive: 4.16%,
C=C1c2c(Cl)ccc(O)c2C(O)=C2C(=O)[C@]3(O)C(O)=C(C(N)=O)C(=O)[C@@H](N(C)C)[C@@H]3[C@@H](O)C12 (stereo partly specified),,"inconclusive: 22.4 µM [falling, single point]"
Cc1cc2nc3c(=O)n(CCc4ccccc4)c(=O)[nH]c3nc2cc1N,,"inconclusive: 2.82 µM [fluorescent, partial curve]"
Cc1cccc(-c2noc(-c3cc4ccccc4oc3=O)n2)c1,inactive: -0.445%,
NC(Cc1ccc(O)c([N+](=O)[O-])c1)C(=O)O (stereo unspecified),inactive: 0.716%,
COc1ccccc1/C=N/NC(=O)c1cccc(OC(F)(F)C(F)F)c1,inactive: 0.373%,
CCOc1ccc(Cn2nnc(C(=O)NCc3ccccc3)c2N)cc1,,"inconclusive: 3.16 µM [falling, single point]"

Compound,"activity change, negative = inhibition",Potency
Cc1ccc(C)c(Nc2nc(-c3cccnc3)cs2)c1,inactive: -4.21%,
N#Cc1ccc(Oc2nc(C(N)=O)cc(-c3ccccc3)n2)cc1,inactive: -1.36%,
O=c1oc2ccccc2nc1/C=C(\O)c1ccc(Br)cc1,,"inconclusive: 11.2 µM [fluorescent, single point]"
COc1ccc(NC(=O)c2sc3nc(-c4cccnc4)ccc3c2N)cc1OC,,"inconclusive: 15.8 µM [fluorescent, single point]"
O=C1/C(=C/C=C/c2ccccc2)Oc2c1ccc(O)c2CN1CCN(CCO)CC1,,"inconclusive: 12.6 µM [fluorescent, partial curve]"
O=C(C[n+]1ccc(-c2cc(C(=O)Nc3cccc(C(F)(F)F)c3)c3ccccc3n2)cc1)c1cccc([N+](=O)[O-])c1,,"inconclusive: 28.2 µM [falling, single point]"
COC(=O)COc1ccc(/C=C2\SC(=O)N(CC(=O)Nc3ccccc3F)C2=O)cc1,inactive: -0.457%,
Cc1cc(C)c[n+](-c2[nH]c(=O)sc2/C=N/NC([S-])=Nc2ccccc2)c1,,"inconclusive: 28.2 µM [fluorescent, single point]"
CCOC(=O)c1cnn2c(C)cc(-c3ccc(F)cc3)nc12,inactive: -1.05%,
CCOC(=O)N1CCN(C(=O)CN(c2cccc(C)c2)S(=O)(=O)c2ccccc2)CC1,,"inconclusive: 28.2 µM [falling, single point]"
COc1ccc(NC(=O)CSc2nnc(-c3ccccc3Cl)n2Cc2ccco2)c(OC)c1,,"inconclusive: 28.2 µM [falling, single point]"
O=C(COc1ccccc1Cl)Nc1ccc(NC(=O)c2ccco2)cc1,inactive: 0.174%,
COc1ccc(-c2cc(C)no2)cc1S(=O)(=O)N1CCOc2ccccc21,inactive: 3.52%,
CCN(CC)CCNc1nc(-c2ccccc2)c2c(c1C#N)CC(C)(C)OC2,,"inconclusive: 28.2 µM [falling, single point]"
O=C(c1ccccc1)N1CCN(C2C3CC4CC(C3)CC2C4)CC1 (stereo unspecified),,"inconclusive: 28.2 µM [falling, single point]"
O=C1C=C(Nc2ccccc2O)c2ccccc2C1=O,inactive: 2.38%,
COc1ccc(C(CC(=O)N2CCOCC2)c2c(OC)cc(OC)c3c(-c4ccccc4)cc(=O)oc23)cc1 (stereo unspecified),,"inconclusive: 5.01 µM [fluorescent, single point]"
CC(=O)C1=C(O)C(=O)N(c2nnn(C)n2)C1c1cccs1 (stereo unspecified),,"inconclusive: 28.2 µM [falling, single point]"
Cc1cc2oc(=O)cc(-c3ccccc3)c2c(C)c1-c1ccc(CO)cc1,inactive: -14.3%,
O=c1c(O)c(-c2cccs2)oc2ccc(Cl)cc12,,"inconclusive: 12.6 µM [fluorescent, single point]"
CCn1nc(C(=O)N[C@@H](CCSC)c2nc3ccccc3[nH]2)c2ccccc2c1=O,,"inconclusive: 4.47 µM [falling, single point]"
COc1cccc(OC)c1-c1nn2c(-c3cc(-c4ccccc4)n[nH]3)nnc2s1,,"inconclusive: 20 µM [falling, single point]"
NC(=O)c1cc(Cl)cn(-c2ccccc2)c1=O,inactive: 2.04%,
CCOC(=O)C1CCN(C(=O)Cn2nc(CC)n3cccc3c2=O)CC1,inactive: 1.7%,

Compound,"activity change, negative = inhibition",Potency
N/C(=N\OC(=O)/C=C/c1ccccc1)c1ccncc1,inactive: -3.89%,
CCCCN1C(=O)/C(=C/C=C2\SCCN2C)SC1=S,,"inconclusive: 10 µM [fluorescent, partial curve]"
O=C(O)C(c1ccccc1)N1C(=O)/C(=C\c2ccc(-c3ccccc3Cl)o2)SC1=S (stereo unspecified),,"inconclusive: 12.6 µM [falling, single point]"
COc1ccc(/C=C2\SC(=O)N(CC(=O)Nc3cccc(C)c3)C2=O)cc1O,,"inconclusive: 12.6 µM [falling, single point]"
O=C(COC(=O)c1ccc(NS(=O)(=O)c2cccs2)cc1)Nc1nc2c(F)c(F)c(F)cc2s1,,"inconclusive: 22.4 µM [falling, single point]"
CC(C)Oc1ccc(/C=C/C(=O)NCC2COc3ccccc3O2)cc1 (stereo unspecified),inactive: -0.691%,
COc1ccc(Nc2cc(Cl)ccc2C(=O)O)cn1,,"inconclusive: 4.47 µM [fluorescent, single point]"
CCOn1c(=O)c(-c2cccs2)[n+]([O-])c2ccccc21,inactive: 1.73%,
O=S(=O)(c1ccc(F)cc1)N1CCC(c2nc3ccccc3[nH]2)CC1,inactive: 0.98%,
CCN(CC)c1ccc(/C=c2\sc3nc4ccccc4n3c2=O)c(O)c1,,"inconclusive: 11.2 µM [fluorescent, partial curve]"
CC(NC(=O)CCc1nc2cc(S(=O)(=O)N3CCOCC3)ccc2n1C)c1ccc(S(N)(=O)=O)cc1 (stereo unspecified),inactive: 2.65%,
COCCn1c(SCC(=O)Nc2cc(C)on2)nnc1-c1ccccc1,,"inconclusive: 2.82 µM [falling, single point]"
Nc1ccc2nc(-c3cccc(-c4nc5ccc(N)cc5[nH]4)c3)[nH]c2c1,,"inconclusive: 20 µM [falling, single point]"
COC(=O)N/N=C/c1cn(Cc2ccc(F)cc2)c2ccccc12,inactive: 1.66%,
O=C(O)CCCn1c(=S)[nH]c2c(sc3ccc([N+](=O)[O-])cc32)c1=O,inactive: 0.529%,
COc1cc(C(=O)OC2CCCCC2=O)cc(OC)c1C (stereo unspecified),,"inconclusive: 5.01 µM [falling, single point]"
CCCCC1NC(C(=O)O)CS1 (stereo unspecified),,"inconclusive: 3.16 µM [falling, single point]"
CCCCn1c(SCC(=O)N2CCC(C)CC2)nc2cc(S(N)(=O)=O)ccc21,,"inconclusive: 11.2 µM [falling, single point]"
CC[n+]1c(/C=C/N(C)c2ccccc2)n(-c2ccccc2)c2ccc(-c3nc4ccccc4s3)cc21,,"inconclusive: 28.2 µM [falling, single point]"
O=C(Cn1cnc2sc(-c3ccccc3)cc2c1=O)NCc1ccco1,,"inconclusive: 28.2 µM [falling, single point]"
O=C(Nc1ccc(N2CCCC2)cc1)c1cccc(-c2cc3ccccc3oc2=O)c1,,"inconclusive: 25.1 µM [falling, single point]"
C#CCOCCOCCOCCNc1nc(N2CCN(C(=O)CCCCCCCCCCNC(=O)[C@H](CCCCN)n3cc(C)nn3)CC2)nc(N2CCN(C(=O)CCCCCCCCCCNC(=O)[C@@H]([C@H](C)CC)n3cc(CCCCCN)nn3)CC2)n1,,"inconclusive: 11.2 µM [falling, single point]"
COc1cc(C)ccc1OCCOc1cc(C)ccc1Cl,,"inconclusive: 11.2 µM [falling, single point]"
